For test [1], the target named is T1, ARF17 (Arabidopsis thaliana) (UniProt Q84WU6).
T1 sequence: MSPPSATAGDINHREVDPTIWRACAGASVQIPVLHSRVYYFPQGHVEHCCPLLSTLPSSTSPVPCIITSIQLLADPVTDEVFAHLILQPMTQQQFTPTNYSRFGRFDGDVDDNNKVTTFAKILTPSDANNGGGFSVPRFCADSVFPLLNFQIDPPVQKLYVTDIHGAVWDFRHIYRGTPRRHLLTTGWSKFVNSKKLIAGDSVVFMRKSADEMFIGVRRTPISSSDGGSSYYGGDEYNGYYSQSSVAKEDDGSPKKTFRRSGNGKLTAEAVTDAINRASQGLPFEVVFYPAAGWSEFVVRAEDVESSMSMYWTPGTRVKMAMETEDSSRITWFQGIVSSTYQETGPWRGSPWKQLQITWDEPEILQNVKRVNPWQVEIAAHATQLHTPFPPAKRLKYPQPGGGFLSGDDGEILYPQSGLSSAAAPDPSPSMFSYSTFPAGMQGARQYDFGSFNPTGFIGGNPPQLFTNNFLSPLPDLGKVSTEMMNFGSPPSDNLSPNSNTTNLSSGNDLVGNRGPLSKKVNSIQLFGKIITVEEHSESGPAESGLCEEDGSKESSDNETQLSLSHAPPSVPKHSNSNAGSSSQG
The test can be described thus: two-hybrid; S. cerevisiae AH109 co-transformed with pGBKT7-ARF (bait) and pGADT7-Aux/IAA (prey); growth on SD/-Ade-His-Leu-Trp against SD/-Leu/-Trp; at least 10 independent colonies; serial dilutions for strength.

Chains of the proteins cited; added tags and fusions are not shown.
UniProt Q38832: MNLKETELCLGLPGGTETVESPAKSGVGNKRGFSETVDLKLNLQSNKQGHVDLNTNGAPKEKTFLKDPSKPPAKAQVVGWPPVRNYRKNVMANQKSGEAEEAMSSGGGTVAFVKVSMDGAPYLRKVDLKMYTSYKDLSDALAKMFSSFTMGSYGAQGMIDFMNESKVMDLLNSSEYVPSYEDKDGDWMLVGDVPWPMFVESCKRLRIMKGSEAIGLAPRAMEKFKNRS
UniProt P93830: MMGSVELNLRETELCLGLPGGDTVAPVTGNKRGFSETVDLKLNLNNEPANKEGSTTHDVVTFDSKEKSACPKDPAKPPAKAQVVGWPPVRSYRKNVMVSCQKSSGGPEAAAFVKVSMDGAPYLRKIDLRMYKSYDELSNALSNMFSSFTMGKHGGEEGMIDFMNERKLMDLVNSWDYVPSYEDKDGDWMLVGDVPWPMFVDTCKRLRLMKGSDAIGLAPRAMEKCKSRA

Test [2] deals with T2, ARF1 (Arabidopsis thaliana) (UniProt Q8L7G0).
T2 sequence: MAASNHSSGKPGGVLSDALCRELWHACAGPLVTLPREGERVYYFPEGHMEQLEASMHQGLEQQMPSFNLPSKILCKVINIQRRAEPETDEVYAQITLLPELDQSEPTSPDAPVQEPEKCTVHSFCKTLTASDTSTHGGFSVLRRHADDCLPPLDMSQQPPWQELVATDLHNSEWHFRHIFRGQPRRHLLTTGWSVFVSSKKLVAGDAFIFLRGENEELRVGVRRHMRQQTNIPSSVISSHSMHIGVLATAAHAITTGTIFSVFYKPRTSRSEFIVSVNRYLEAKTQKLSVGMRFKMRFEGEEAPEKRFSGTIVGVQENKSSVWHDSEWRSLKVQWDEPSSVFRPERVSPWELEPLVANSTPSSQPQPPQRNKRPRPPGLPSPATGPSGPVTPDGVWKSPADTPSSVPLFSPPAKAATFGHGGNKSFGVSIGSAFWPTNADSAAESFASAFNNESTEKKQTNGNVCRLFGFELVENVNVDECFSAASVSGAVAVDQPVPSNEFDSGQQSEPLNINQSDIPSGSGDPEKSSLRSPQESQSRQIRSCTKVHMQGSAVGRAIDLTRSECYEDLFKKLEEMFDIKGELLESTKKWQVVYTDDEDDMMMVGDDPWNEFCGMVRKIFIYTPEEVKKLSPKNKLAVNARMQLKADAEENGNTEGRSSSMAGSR
The test is described as above.

No constants are given. Whether binding was seen depends on the method and setting. Some entries that bind do so weakly or less than the wild type.

Regarding Aux/IAA14 (from UniProt Q38832 1-228), the binding result in test [1] is “binds”.

Regarding Aux/IAA17 (from UniProt P93830 1-229), the binding result in test [2] is on record as “binds”.
